± gives the standard deviation of the averaged measurements. The list shows a part of the results.
Test system: PfAP2-I AP2 domain 3 (GST-tagged)
Experiment: gcPBM binding intensity (ln(normalized median fluorescence intensity)); higher = stronger DNA binding
Outline: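 After 1 h on an Agilent 4 × 180k array of primer-extended double-stranded 36-bp intergenic genomic probes and negative controls, bound GST-tagged P. falciparum DNA-binding domains were detected with Alexa488 anti-GST antibody and scanned at 488 nm. The domains had been expressed in E. coli, and binding took place in 1× PBS with 1% milk, 0.2 mg/ml BSA, 0.5% salmon testes DNA and 0.03% Triton X-100. Binding intensity is the highest Masliner-normalised natural-log median intensity across replicate spots of either probe orientation.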

Sequence	gcPBM binding intensity (ln)
ATATATATGTGTAAAAGTACATATATTTTGAAATAT [XGTACX_site4024]	7.78 ± 0.47
TTTTAATAAAAGCCCATGCACACCTTAGAAAGTTTT [CACACA_site346]	7.88 ± 0.59
AAAAAAATCTATATTACACACATATATACCTATATA [CACACA_site7464]	7.62 ± 0.51
TACATTGTATACATATGTACACATATATATATATAT [XGTACX_site6174]	9.31 ± 0.55
TATTTATGTTATAATTGTACAATAAACAAATTTTTT [XGTACX_site5306]	7.83 ± 0.32
ATATTTTGTATAATCACACACACTATTCTTAAATAG [CACACA_site7270]	7.79 ± 0.68
AGAAATTAATCGAAGTGTACATATAAACATACATAT [XGTACX_site5518]	7.88 ± 0.51
ATTATACATTTTAGATGTACATATTTTAAATTTAAT [XGTACX_site5174]	7.72 ± 0.54
AACAAACAAACAAATATACACACTTTTGTATAAAGT [CACACA_site3509]	7.66 ± 0.61
AAATGGGCTTATTTATGTACTTAAATATATCTACCC [XGTACX_site3823]	7.76 ± 0.47
TAATCAATTCAATATTGTACGATATTTACCTTTAAA [XGTACX_site4678]	7.88 ± 0.47
CCCACATAAAAAAATAAACACACATATGTATATATA [CACACA_site9040]	7.62 ± 0.67
AACCTCGTGTAATATGCATGTTCCCTTCAAAGTTTT [TGCATGCA_site459]	7.88 ± 1.1
TACATATATATATACACACATACATATATATACGCA [CACACA_site792]	7.79 ± 0.42
ATCTATGGAGCTTATACACACTTTTATATTTTAACA [CACACA_site5994]	7.91 ± 0.69
TTTGAATTTTTATATACACACATTATTATATTATAT [CACACA_site1593]	7.68 ± 0.59
TATTTATTTGTGGGGTGTACGAAATTTTTTTTTTTT [XGTACX_site5091]	8.38 ± 0.42
TTTACATTAAATCACGCACACAAAAAAAAAAAAAAA [CACACA_site2418]	8.34 ± 0.32
ATAGGTGAATACTAATATAAATTCAAGAGGGAAAAG [CACACA_negctrl_site720]	7.64 ± 0.7

Sequence	gcPBM binding intensity (ln)
TATATATATATAATGTGTACATACTAAATAGAGGAC [XGTACX_site4153]	9.34 ± 0.54
TAAATATAAAAATGCACACACACAAAAAAAAAAAAA [CACACA_site895]	8.88 ± 0.085
GAAATGTATAAATCCATACACACATAAATTTTAATA [CACACA_site2364]	7.58 ± 0.4
TTTTTCATGTTTATTAGTACATATATTAAGAATGGA [XGTACX_site3493]	7.85 ± 0.42
TTTTGTAAATATATATGTACATATATATATATATAT [XGTACX_site5803]	9.15 ± 0.5
ACCTATTTATAATAGTGTACGTACAAATTTGTTTAC [XGTACX_site8176]	8.17 ± 0.41
AAAATAAAAAATTAATGTACTTAGAATTGTCACTAA [XGTACX_site1346]	7.51 ± 0.36
TAAAATAATAAACAGAAGAAATCATTCATATAAAAA [XGTACX_negctrl_site502]	7.53 ± 0.56
AATTTGTTGAAACACACACACACATACATATATATA [CACACA_site2287]	8.37 ± 0.69
TGATATTATATATATACACACATGTATGTATATATA [CACACA_site1364]	7.41 ± 0.35
ATAAATATATGATAAAGTACATATTTATATAATAAA [XGTACX_site7263]	7.45 ± 0.38
ATGTATCTATATATATGTACACATATTTTAATTAAA [XGTACX_site3673]	7.95 ± 0.37
ATATTTATTTATAATTGTACTAATAATATATTTTAA [XGTACX_site587]	7.76 ± 0.29
TGTGCATAATTTTGTGCACACCACGCTAATAATTTT [CACACA_site2915]	11.4 ± 0.48
GGAATAAATAATATTATACACACGTATATTATTATA [CACACA_site2435]	7.43 ± 0.36
AAGCTTTCATAAAGATGTACTTTTTAAAAATAATCT [XGTACX_site5725]	7.76 ± 0.23
AAATTTAGGAACATTATATATATATATATATATATA [CACACA_negctrl_site862]	9.41 ± 0.45
TATTTCATCTTATTTTAGGAAAAACTAATATATAAG [CACACA_negctrl_site1823]	7.36 ± 0.42
TATTCGTCTTTTTTCTCACACACCCTTTTTATTAAA [CACACA_site2508]	8.15 ± 0.52

Sequence	gcPBM binding intensity (ln)
GAACATTTGAAATATGCACACATGTATAAACCTACA [CACACA_site2654]	8.7 ± 0.4
TAAAAATAAAGAAAATGTACATAAATAATAATACAT [XGTACX_site2278]	7.79 ± 0.57
CAAAAAAAGGAAAAGATACACACCGTAAATTAAAAT [CACACA_site3612]	7.65 ± 0.75
AGCAGGATTAAAAAAAGTACAAGAATTAATATTTAA [XGTACX_site3413]	7.75 ± 0.099
TATATCTATAATATTACACACATATATTTATATTTT [CACACA_site7595]	7.67 ± 0.37
AATTATTATCCCCTCACACACAAAAATAAAAAGAAT [CACACA_site2885]	8.39 ± 0.63
ATTTTTTATTGTTATAAAAAAAAAATTAAACAATTA [CACACA_negctrl_site1077]	7.32 ± 0.38
AAATTAAAGGCATAAAAGAAAATATTTAATAAAAAA [CACACA_negctrl_site1689]	7.71 ± 0.73
AAAGAAAATAACAAAATTTTGAAAACATCACATTCG [CACACA_negctrl_site89]	7.63 ± 0.69
ATATATAATAAACAGGTGCATTGTTTTATTTTGTAT	10.7 ± 0.42
ACCAGTTCTTAATACAAATATGTACATATATATATA [GTGCAC_negctrl_site56]	9.14 ± 0.33
TTTTTTTTAATTGTGATACGTATATTATTTAATGAT [CACACA_negctrl_site38]	7.82 ± 0.37
TAATGTATCTAAAATTGTACAAATATAAATCTAAAT [XGTACX_site1197]	7.87 ± 0.28
CGCGCCCAGAAACACACACACACACCGATATATATA [CACACA_site5250]	8.45 ± 0.6
ACAAAGATAAAACATAAAATATATCAAACATAAAAT [XGTACX_negctrl_site198]	7.51 ± 0.64
AATAAATATAAATACACACCCATATAAATATAAATA [CACACA_site7264]	7.78 ± 0.67
AAAAAAAATACATGTTGTACGGTACAAATATAAAGT [XGTACX_site2863]	8.45 ± 0.44
ATATATCTTCTTTGCACACTTAAAGGGAAGTGATAA [CACACA_site342]	9.46 ± 0.13

Source: the supplement of paper PMC11417369
